# Test results taken from the supplement of paper PMC8728848.
# The other results are listed elsewhere or left out.
# B1: PX14343B-bfa-546-20-546 (Bacteroides fragilis) (protein)
# chain: CDLERYPLTDLSEETFWNSESNAELALTSLYRGSLTDGVEYNPSDWWSYHGMIMMEHLSDNAFDRRGENNPFFKISSGNLTADNAFIKRYWETSYKRIGYCNRFLVGIQNSSESEKKTRMIAEARFLRATQYFYLASYFKNVPLVENVLTGEEANNVTKTSQADILKWCVTEFTAAAADLPRFSAIPAGEAGRACKQAALAFLGRTCMLQKDWKSGAKAFHDIMELGDNAINANYQELFYPSTGTSNKENIFYIQYLENYLGTGLPQHALSAKDGGWSLVNPAADLYESYEFKDGTPFSYDDPRYDPSNLGKDRDPRLDYTIYYNGAIFMGTEYKMSPDYSAAKKEKLDYTSEASRTGFMMRKYFEESTPINDVQSANGLTPVIRYAEVLLGYLECLVEDNQTITQGILDETINAVRGRASVNMPPVTEVTPAKLREIVRHERRIELAMEGIRYWDIMRWGIAHEVLSQKIWGAPYPGSTQYATTTKEVDPTGNYRWYVGKRAFRNPTDYTWPIPQSEQNINPNLRD
# What was measured:
# Assay in all cases: glycan array binding signal (z-score within array); higher = stronger binding
# Details in all cases: glycan notation: IUPAC condensed, linker removed
# [1] = target: GalNAc(b1-4)GlcNAc(b1-2)Man
# Procedure, shortened: (§1)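 The binding signal is a Z-score computed within each array and averaged over linkers. Arrays of the same protein sequence at different concentrations or buffers were also averaged together. Data originate from 3228 arrays in the Consortium for Functional Glycomics database, kept only where the protein sequence was available.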
# [2] = target: GalNAc(b1-4)GlcNAc(b1-2)Man(a1-3)[GalNAc(b1-4)GlcNAc(b1-2)Man(a1-6)]Man(b1-4)GlcNAc(b1-4)GlcNAc
# Procedure, shortened: as §1
# [3] = target: GalNAc(b1-4)GlcNAc(b1-3)GalNAc(b1-4)GlcNAc
# Procedure, shortened: as §1
# GalNAc(b1-4)GlcNAc6S = target: GalNAc(b1-4)GlcNAc6S
# Procedure, shortened: as §1
# GalNAc(b1-6)GalNAc = target: GalNAc(b1-6)GalNAc
# Procedure, shortened: as §1
# GalNAc3S(b1-4)GlcNAc = target: GalNAc3S(b1-4)GlcNAc
# Procedure, shortened: as §1
# GalNAc3S(b1-4)GlcNAc3S = target: GalNAc3S(b1-4)GlcNAc3S
# Procedure, shortened: as §1
# [4] = target: GalNAc3S(b1-4)[Fuc(a1-3)]GlcNAc
# Procedure, shortened: as §1
# GalNAc4S6S(b1-4)GlcNAc = target: GalNAc4S6S(b1-4)GlcNAc
# Procedure, shortened: as §1
# GalNAc6S(b1-4)GlcNAc = target: GalNAc6S(b1-4)GlcNAc
# Procedure, shortened: as §1
# Glc(a1-4)Glc = target: Glc(a1-4)Glc
# Procedure, shortened: as §1
# [5] = target: Glc(a1-4)Glc(a1-4)Glc(a1-4)Glc
# Procedure, shortened: as §1
# Glc(a1-6)Glc(a1-6)Glc = target: Glc(a1-6)Glc(a1-6)Glc
# Procedure, shortened: as §1
# [6] = target: Glc(a1-6)Glc(a1-6)Glc(a1-6)Glc
# Procedure, shortened: as §1
# Glc(b1-4)Glc = target: Glc(b1-4)Glc
# Procedure, shortened: as §1
# Glc(b1-6)Glc = target: Glc(b1-6)Glc
# Procedure, shortened: as §1
# GlcA(b1-3)Gal = target: GlcA(b1-3)Gal
# Procedure, shortened: as §1
# GlcA(b1-3)GlcNAc = target: GlcA(b1-3)GlcNAc
# Procedure, shortened: as §1
# GlcA(b1-6)Gal = target: GlcA(b1-6)Gal
# Procedure, shortened: as §1
# [7] = target: GlcA3S(b1-3)Gal(b1-4)GlcNAc(b1-2)Man
# Procedure, shortened: as §1
# [8] = target: GlcA3S(b1-3)Gal(b1-4)GlcNAc(b1-3)Gal(b1-4)Glc
# Procedure, shortened: as §1
# [9] = target: GlcNAc(a1-3)Gal(b1-4)GlcNAc
# Procedure, shortened: as §1
# [10] = target: GlcNAc(a1-4)Gal(b1-3)GlcNAc
# Procedure, shortened: as §1
# [11] = target: GlcNAc(a1-4)Gal(b1-4)GalNAc
# Procedure, shortened: as §1
# [12] = target: GlcNAc(a1-4)Gal(b1-4)GlcNAc
# Procedure, shortened: as §1
# [13] = target: GlcNAc(a1-4)Gal(b1-4)GlcNAc(b1-3)Gal(b1-4)Glc
# Procedure, shortened: as §1
# [14] = target: GlcNAc(a1-4)Gal(b1-4)GlcNAc(b1-3)Gal(b1-4)GlcNAc
# Procedure, shortened: as §1
# [15] = target: GlcNAc(a1-4)Gal(b1-4)GlcNAc(b1-3)Gal(b1-4)GlcNAc(b1-3)Gal(b1-4)GlcNAc
# Procedure, shortened: as §1
# [16] = target: GlcNAc(a1-4)Gal(b1-4)GlcNAc(b1-3)Gal(b1-4)[Fuc(a1-3)]GlcNAc(b1-3)Gal(b1-4)[Fuc(a1-3)]GlcNAc
# Procedure, shortened: as §1
# [17] = target: GlcNAc(a1-6)Gal(b1-4)GlcNAc
# Procedure, shortened: as §1
# [18] = target: GlcNAc(b1-2)Gal(b1-3)GalNAc
# Procedure, shortened: as §1
# [19] = target: GlcNAc(b1-2)Man(a1-3)[GlcNAc(b1-2)Man(a1-6)]Man(b1-4)GlcNAc(b1-4)GlcNAc
# Procedure, shortened: as §1
# [20] = target: GlcNAc(b1-2)Man(a1-3)[GlcNAc(b1-2)Man(a1-6)]Man(b1-4)GlcNAc(b1-4)[Fuc(a1-6)]GlcNAc
# Procedure, shortened: as §1
# [21] = target: GlcNAc(b1-2)Man(a1-3)[GlcNAc(b1-4)][GlcNAc(b1-2)Man(a1-6)]Man(b1-4)GlcNAc(b1-4)GlcNAc
# Procedure, shortened: as §1
# [22] = target: GlcNAc(b1-2)Man(a1-3)[GlcNAc(b1-4)][GlcNAc(b1-2)Man(a1-6)]Man(b1-4)GlcNAc(b1-4)[Fuc(a1-6)]GlcNAc
# Procedure, shortened: as §1
# [23] = target: GlcNAc(b1-2)[GlcNAc(b1-4)]Man(a1-3)[GlcNAc(b1-2)Man(a1-6)]Man(b1-4)GlcNAc(b1-4)GlcNAc
# Procedure, shortened: as §1
# [24] = target: GlcNAc(b1-2)[GlcNAc(b1-4)]Man(a1-3)[GlcNAc(b1-4)][GlcNAc(b1-2)Man(a1-6)]Man(b1-4)GlcNAc(b1-4)GlcNAc
# Procedure, shortened: as §1
binder,measurement,setting,value
B1,glycan array binding signal (z-score),[1],-0.128
same,glycan array binding signal (z-score),[2],-0.104
same,glycan array binding signal (z-score),[3],-0.117
same,glycan array binding signal (z-score),GalNAc(b1-4)GlcNAc6S,-0.109
same,glycan array binding signal (z-score),GalNAc(b1-6)GalNAc,-0.13
same,glycan array binding signal (z-score),GalNAc3S(b1-4)GlcNAc,-0.13
same,glycan array binding signal (z-score),GalNAc3S(b1-4)GlcNAc3S,-0.125
same,glycan array binding signal (z-score),[4],-0.136
same,glycan array binding signal (z-score),GalNAc4S6S(b1-4)GlcNAc,-0.125
same,glycan array binding signal (z-score),GalNAc6S(b1-4)GlcNAc,10.1
same,glycan array binding signal (z-score),Glc(a1-4)Glc,-0.122
same,glycan array binding signal (z-score),[5],-0.109
same,glycan array binding signal (z-score),Glc(a1-6)Glc(a1-6)Glc,-0.131
same,glycan array binding signal (z-score),[6],-0.101
same,glycan array binding signal (z-score),Glc(b1-4)Glc,-0.13
same,glycan array binding signal (z-score),Glc(b1-6)Glc,-0.118
same,glycan array binding signal (z-score),GlcA(b1-3)Gal,-0.111
same,glycan array binding signal (z-score),GlcA(b1-3)GlcNAc,-0.11
same,glycan array binding signal (z-score),GlcA(b1-6)Gal,-0.118
same,glycan array binding signal (z-score),[7],-0.131
same,glycan array binding signal (z-score),[8],-0.122
same,glycan array binding signal (z-score),[9],-0.12
same,glycan array binding signal (z-score),[10],-0.128
same,glycan array binding signal (z-score),[11],-0.121
same,glycan array binding signal (z-score),[12],-0.123
same,glycan array binding signal (z-score),[13],-0.125
same,glycan array binding signal (z-score),[14],-0.115
same,glycan array binding signal (z-score),[15],-0.128
same,glycan array binding signal (z-score),[16],-0.102
same,glycan array binding signal (z-score),[17],-0.106
same,glycan array binding signal (z-score),[18],-0.112
same,glycan array binding signal (z-score),[19],-0.123
same,glycan array binding signal (z-score),[20],-0.117
same,glycan array binding signal (z-score),[21],-0.127
same,glycan array binding signal (z-score),[22],-0.122
same,glycan array binding signal (z-score),[23],-0.125
same,glycan array binding signal (z-score),[24],-0.124
